Experimental data published in the antibiotic and cytotoxicity screens of Wong et al. (2023).
The list shows a part of the results.

tested on: HepG2; experiment: cytotoxicity call (relative viability < 0.9); details: 10 µM

Structure (SMILES) | cytotoxicity call
C[C@@H]1CN([C@@H](C)CO)C(=O)c2cc(NC(=O)Cc3ccccc3)ccc2O[C@@H](C)CCCCO[C@H]1CN(C)Cc1ccncc1 | inactive
C[C@H](CO)N1C[C@H](C)[C@@H](CN(C)C(=O)NC2CCCCC2)Oc2cc(-c3cccnc3)ccc2S1(=O)=O | inactive
N=C(CN1CCCCC1)NO | inactive
C[C@H]1CN([C@@H](C)CO)C(=O)c2c(c3ccccc3n2C)-c2ccccc2CO[C@@H]1CN(C)Cc1ccc(C(=O)O)cc1 | inactive
C[C@H](CO)N1C[C@H](C)[C@@H](CN(C)Cc2cccc(F)c2)OCc2ccccc2-c2c(n(C)c3ccccc23)C1=O | inactive
Cc1noc(C)c1NC(=O)Nc1ccc2c(c1)C(=O)N([C@@H](C)CO)C[C@@H](C)[C@H](CN(C)Cc1ccncc1)OCCCC[C@@H](C)O2 | inactive
C[C@H]1CN([C@@H](C)CO)S(=O)(=O)c2ccc(C#Cc3ccc(F)cc3)cc2O[C@@H]1CN(C)S(=O)(=O)c1cn(C)cn1 | inactive
Nc1ccccc1C(=O)NCCN1CCNC1=O | inactive
C[C@@H]1CN([C@H](C)CO)C(=O)c2cc(NC(=O)NC3CCCCC3)ccc2O[C@@H](C)CCCCO[C@H]1CN(C)Cc1ccc(C(F)(F)F)cc1 | inactive
C[C@@H]1CCCCO[C@@H](CN(C)C(=O)c2ccccc2)[C@@H](C)CN([C@@H](C)CO)C(=O)c2cc(NC(=O)Nc3ccccc3)ccc2O1 | inactive
C[C@@H]1CN([C@@H](C)CO)C(=O)c2cc(NC(=O)Nc3ccc(C(F)(F)F)cc3)ccc2O[C@@H]1CN(C)C(=O)Nc1ccc(C(F)(F)F)cc1 | inactive
CCN(CC)C(=O)N1CCN(C)CC1 | inactive
Brc1ccc(CSc2c[nH]c3ccccc23)cc1 | active
CCCCn1c(SCC(N)=O)nc2c1c(=O)n(C)c(=O)n2C | inactive
CCCNC(=O)Nc1ccc2c(c1)C(=O)N(C)C[C@H](OC)[C@H](C)CN(C(=O)C1CCOCC1)[C@@H](C)CO2 | inactive

tested on: S. aureus RN4220; experiment: growth inhibition call (relative growth <= 0.2); details: 50 µM

Structure (SMILES) | growth inhibition call
Cc1ccc(S(=O)(=O)Nc2ccc3c(c2)C(=O)N([C@@H](C)CO)C[C@@H](C)[C@H](CN(C)Cc2ccc(Oc4ccccc4)cc2)O3)cc1 | inactive
COc1cccc(NC(=O)N[C@@H]2C=C[C@@H](CC(=O)N3CCN(C)CC3)O[C@@H]2CO)c1 | inactive
COc1ccc(S(=O)(=O)Nc2ccc3c(c2)C(=O)N([C@H](C)CO)C[C@H](C)[C@H](CN(C)C(=O)Nc2ccc(F)cc2)OCCCC[C@H](C)O3)cc1 | inactive
COc1ccc(CNC(=O)C[C@@H]2CC[C@@H]3[C@H](COc4ccc(NC(=O)C5CC5)cc4C(=O)N3C)O2)cc1 | inactive
O=C(C[C@@H]1CC[C@H]2[C@@H](COC[C@H](O)CN2S(=O)(=O)c2ccc(Cl)cc2)O1)N[C@@H]1CCN(Cc2ccccc2)C1 | inactive
C[C@H](CO)N1C[C@H](C)[C@@H](CN(C)C(=O)Cc2ccccc2)OCCCC[C@H](C)Oc2ccc(NS(=O)(=O)c3cccs3)cc2C1=O | inactive
Cc1ccc(S(=O)(=O)N(C)C[C@@H]2OCCCC[C@@H](C)Oc3ccc(NC(=O)Nc4ccc5c(c4)OCO5)cc3C(=O)N([C@H](C)CO)C[C@@H]2C)cc1 | inactive
OCc1cccc(Cn2cncn2)c1 | inactive
C[C@H](CO)N1C[C@H](C)[C@H](CN(C)C(=O)Nc2ccc3c(c2)OCO3)Oc2ccc(NC(=O)C3CC3)cc2C1=O | inactive
C[C@@H]1CN([C@H](C)CO)S(=O)(=O)c2ccc(C3=CCCC3)cc2O[C@H]1CN(C)C(=O)Cc1ccncc1 | inactive
COc1ccc(CN(C)C[C@@H]2Oc3c(NC(=O)Nc4ccc(C(F)(F)F)cc4)cccc3C(=O)N([C@H](C)CO)C[C@@H]2C)cc1 | inactive
CCCC#Cc1cnc2c(c1)C(=O)N([C@H](C)CO)C[C@H](C)[C@@H](CN(C)C(=O)c1ccc3c(c1)OCO3)O2 | inactive
CN(C)CCCNC(=O)C[C@@H]1CC[C@H]2[C@@H](COc3ccc(NC(=O)c4ccccc4F)cc3C(=O)N2C)O1 | inactive
Cc1nn2c(N)csc2nc1=O | inactive
C[C@H](CO)N1C[C@H](C)[C@H](CN(C)Cc2ccc(Oc3ccccc3)cc2)Oc2ccc(NC(=O)C3CC3)cc2C1=O | inactive
C=CCNC(=O)CSc1nc(=O)cc(N)[nH]1 | inactive
CNC[C@@H]1OCCCC[C@@H](C)Oc2ccc(NS(=O)(=O)c3cn(C)cn3)cc2C(=O)N([C@H](C)CO)C[C@H]1C | inactive
